Reference: the supplement of paper PMC9135407
Several values for one entry are separate records, joined by “and”; a condition that tells them apart may be missing. Equal values may be shown once. Where a name gives a salt, the structure may show the parent alone. The whole screen tested about 5,800 compounds, of which about 620 (11%) showed activity.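 How the source made its calls: active = score above a cut-off or among the top three wells of a plate; in these data no inactive exceeds 0.85.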 The list shows a part of the results, in another mix than the full data.

Tested on: primary human hepatic stellate cells (donor 1)
Assay: scaled lipid accumulation score (0 = DMSO-like, 1 = nortriptyline-like); higher = stronger HSC inactivation (lipid re-accumulation), active = hit call of the paper
Details: 48 h
[1] = library stock concentration: 10 mM
[2] = library stock concentration: 5 mM
[3] = library stock concentration: 1 mM
[4] = library stock concentration: 3.33 mM
[5] = library stock concentration: 80 uM
[6] = library stock concentration: 400 uM
[7] = library stock concentration: 2 mM

O=c1oc(Cl)c(Cl)c2ccccc12 [3,4-dichloroisocoumarin]
scaled lipid accumulation score (library stock concentration: 23.3 mM): inactive: 0.634

O=c1oc(Cl)c(Cl)c2ccccc12 [3,4-Dichloroisocoumarin]
scaled lipid accumulation score [1]: inactive: 0.402

C=C1C[C@H]2[C@@H]3C=C(C)C4=CC(=O)CC[C@]4(C)[C@H]3CC[C@]2(C)[C@@]1(OC(C)=O)C(C)=O [Melengestrol acetate]
scaled lipid accumulation score [2]: inactive: ≤ 0

C=C1C[C@H]2[C@@H]3C=C(C)C4=CC(=O)CC[C@]4(C)[C@H]3CC[C@]2(C)[C@@]1(OC(C)=O)C(C)=O
scaled lipid accumulation score [1]: inactive: 0.119

COc1ccc2c(c1)c(CC(=O)NCCc1ccccc1)c(C)n2C(=O)c1ccc(Cl)cc1 [N-(2-phenylethyl)-Indomethacin amide]
scaled lipid accumulation score [3]: inactive: 0.049

CCCCCCCCCCCCCCCCCCCC(=O)NCCO [Arachidoyl Ethanolamide]
scaled lipid accumulation score [3]: inactive: ≤ 0

CC(=O)Oc1cccc2c1C(=O)c1c(OC(C)=O)cc(C(=O)O)cc1C2=O [Diacerein]
scaled lipid accumulation score [4]: inactive: ≤ 0
scaled lipid accumulation score [1]: inactive: ≤ -0.001

CC(C)(C#N)c1ccc(N2C(=O)OCc3cnc4ccc(-c5cnc6ccccc6c5)cc4c32)cc1
scaled lipid accumulation score [4]: inactive: 0.051
scaled lipid accumulation score [1]: inactive: 0.782

O=C(O)c1ccc2ccccc2c1O.OCc1cc(C(O)CNCCCCCCOCCCCc2ccccc2)ccc1O (configuration not stated) [Salmeterol xinafoate]
scaled lipid accumulation score [1]: active: 0.978

CC1(C)OC(=O)NC1=O [Dimethadione]
scaled lipid accumulation score: inactive: ≤ 0
scaled lipid accumulation score [1]: inactive: ≤ 0
scaled lipid accumulation score (library stock concentration: 15.5 mM): inactive: 0.011

CNc1nc(Nc2cnn(C3CCN(C4COC4)CC3F)c2Cl)ncc1C(F)(F)F (configuration not stated)
scaled lipid accumulation score [4]: inactive: ≤ -0.009
scaled lipid accumulation score [1]: inactive: ≤ 0

N[C@@H](C(=O)O)c1ccc(C(=O)O)c(C(=O)O)c1
scaled lipid accumulation score [1]: inactive: ≤ -0.006

N=C(N)NCC1COC2(CCCCC2)O1 (configuration not stated) [Guanadrel sulfate]
scaled lipid accumulation score: inactive: ≤ 0

Cn1nnnc1SCC1=C(C(=O)O)N2C(=O)[C@@H](NC(=O)[C@H](O)c3ccccc3)[C@H]2SC1 [Cefamandole sodium salt]
scaled lipid accumulation score: inactive: ≤ 0

CCC[C@H](N[C@@H](C)C(=O)N1[C@H](C(=O)O)C[C@@H]2CCCC[C@@H]21)C(=O)OCC [Perindopril erbumine]
scaled lipid accumulation score (library stock concentration: 4.5 mM): inactive: ≤ 0
scaled lipid accumulation score [1]: inactive: 0.152

CCC[C@H](N[C@@H](C)C(=O)N1[C@H](C(=O)O)C[C@@H]2CCCC[C@@H]21)C(=O)OCC [Perindopril]
scaled lipid accumulation score: inactive: ≤ 0

Fc1ccc(-c2nc3n(c2-c2ccncc2)CCS3)cc1
scaled lipid accumulation score [4]: inactive: ≤ 0
scaled lipid accumulation score [1]: inactive: ≤ -0.001

COCCOc1ccc2c(c1)ncn2-c1ccc2cccc(N3CCC(N)CC3)c2n1
scaled lipid accumulation score [1]: active: 0.937

COc1ccc(NS(=O)(=O)c2ccc(N)cc2)nn1 [Sulfamethoxypyridazine]
scaled lipid accumulation score: inactive: ≤ 0
scaled lipid accumulation score [4]: inactive: ≤ 0
scaled lipid accumulation score (library stock concentration: 7.1 mM): inactive: ≤ 0
scaled lipid accumulation score [1]: inactive: 0.049 and inactive: ≤ 0

Nc1ccc(C(=O)NCC(=O)O)cc1 [4-Aminohippuric Acid]
scaled lipid accumulation score [4]: inactive: ≤ 0
scaled lipid accumulation score [1]: inactive: ≤ 0

Nc1ccc(C(=O)NCC(=O)O)cc1 [Aminohippuric acid]
scaled lipid accumulation score: inactive: ≤ 0
scaled lipid accumulation score [1]: inactive: ≤ -0.027

Nc1ccc(S(=O)(=O)c2ccc(N)cc2)cc1 [Dapsone]
scaled lipid accumulation score: inactive: ≤ 0
scaled lipid accumulation score (library stock concentration: 8.1 mM): inactive: ≤ -0.001
scaled lipid accumulation score [1]: inactive: ≤ 0

Nc1ccc(S(=O)(=O)c2ccc(N)cc2)cc1
scaled lipid accumulation score [1]: inactive: ≤ 0

O=Nc1ccc(O)c2ncccc12
scaled lipid accumulation score [1]: inactive: ≤ 0

O=C(c1ccc(C(=O)N2CCC(N3CCCC3)CC2)c(Nc2ccccc2)c1)N1CCC(N2CCCC2)CC1
scaled lipid accumulation score [5]: inactive: ≤ 0
scaled lipid accumulation score [6]: inactive: ≤ 0
scaled lipid accumulation score [7]: inactive: ≤ 0
scaled lipid accumulation score [4]: inactive: ≤ 0
scaled lipid accumulation score [1]: inactive: 0.002 and inactive: ≤ 0

OC[C@H]1O[C@@H](Oc2ccc(O)cc2)[C@H](O)[C@@H](O)[C@@H]1O [Arbutin]
scaled lipid accumulation score: inactive: ≤ 0
scaled lipid accumulation score [4]: inactive: ≤ 0
scaled lipid accumulation score [1]: inactive: ≤ 0

CCCCC[C@H](O)/C=C/[C@@H]1[C@@H](C/C=C\CCCC(=O)NC(CO)CO)[C@@H](O)C[C@H]1O [Prostaglandin F2.alpha. serinol amide]
scaled lipid accumulation score [3]: inactive: ≤ 0

CNCCC(Oc1ccc(C(F)(F)F)cc1)c1ccccc1.Cl (configuration not stated) [Fluoxetine]
scaled lipid accumulation score (library stock concentration: 5.8 mM): active: 0.96

OCCN1CCN(CCCN2c3ccccc3Sc3ccc(Cl)cc32)CC1 [Perphenazine]
scaled lipid accumulation score: inactive: 0.75
scaled lipid accumulation score [2]: inactive: 0.605
scaled lipid accumulation score [1]: inactive: 0.329

CN(C)CCc1c[nH]c2ccc(Cn3cncn3)cc12 [Rizatriptan Benzoate]
scaled lipid accumulation score [4]: inactive: ≤ 0
scaled lipid accumulation score [1]: inactive: ≤ 0

CN(C)CCc1c[nH]c2ccc(Cn3cncn3)cc12 [Rizatriptan benzoate]
scaled lipid accumulation score (library stock concentration: 5.1 mM): inactive: ≤ 0

CN(C)CCc1c[nH]c2ccc(Cn3cncn3)cc12
scaled lipid accumulation score [1]: inactive: ≤ 0

NCCCCCCCCCCN [1,10-Diaminodecane]
scaled lipid accumulation score [1]: inactive: ≤ -0.052

O=[N+]([O-])c1ccc2c(c1)S(=O)(=O)C=C2 [Stattic]
scaled lipid accumulation score [4]: active: 1.25

CC(=O)Oc1cccc(O)c1 [Resorcinol monoacetate]
scaled lipid accumulation score [1]: inactive: 0.063
scaled lipid accumulation score (library stock concentration: 13.1 mM): inactive: ≤ 0

CN[C@@H]1C[C@H]2O[C@@](C)([C@@H]1OC)n1c3ccccc3c3c4c(c5c6ccccc6n2c5c31)C(=O)N[C@H]4O
scaled lipid accumulation score [4]: active: 1.21

CCN1CCN(C(=O)N[C@@H](C(=O)N[C@@H]2C(=O)N3[C@@H]2SC(C)(C)[C@@H]3C(=O)O)c2ccccc2)C(=O)C1=O [Piperacillin sodium salt]
scaled lipid accumulation score: inactive: ≤ 0

CCN1CCN(C(=O)N[C@@H](C(=O)N[C@@H]2C(=O)N3[C@@H]2SC(C)(C)[C@@H]3C(=O)O)c2ccccc2)C(=O)C1=O
scaled lipid accumulation score [1]: inactive: ≤ 0

CCN1CCN(C(=O)N[C@@H](C(=O)N[C@@H]2C(=O)N3[C@@H]2SC(C)(C)[C@@H]3C(=O)O)c2ccccc2)C(=O)C1=O [Piperacillin Sodium]
scaled lipid accumulation score [4]: inactive: ≤ 0
scaled lipid accumulation score [1]: inactive: ≤ -0.001

CCN1CCN(C(=O)N[C@@H](C(=O)N[C@@H]2C(=O)N3[C@@H]2SC(C)(C)[C@@H]3C(=O)O)c2ccccc2)C(=O)C1=O [Piperacillin sodium]
scaled lipid accumulation score [1]: inactive: ≤ 0

Brc1c(Br)c(Br)c2n[nH]nc2c1Br [Casein Kinase II Inhibitor I]
scaled lipid accumulation score [4]: inactive: ≤ 0

CN(NC(=O)CC(=O)NN(C)C(=S)c1ccccc1)C(=S)c1ccccc1 [Elesclomol (STA-4783)]
scaled lipid accumulation score [4]: inactive: ≤ 0
scaled lipid accumulation score [1]: inactive: ≤ 0

Nc1nc2c(nc(Br)n2[C@@H]2O[C@@H]3COP(=O)(O)O[C@H]3[C@H]2O)c(=O)[nH]1 [8-Bromo-cGMP, sodium salt]
scaled lipid accumulation score [1]: inactive: 0.026

CCCCCC(=O)/C=C/[C@H]1[C@H](O)CC(=O)[C@@H]1CCCCCCC(=O)O [15-keto Prostaglandin E1]
scaled lipid accumulation score [3]: inactive: ≤ 0

CN(C)C/C=C/C(=O)Nc1ccc(C(=O)Nc2cccc(Nc3nccc(-c4cccnc4)n3)c2)cc1
scaled lipid accumulation score [1]: active: 1.15

CO[C@@H]1[C@@H](OC(N)=O)[C@@H](O)[C@H](Oc2ccc3c(O)c(NC(=O)c4ccc(O)c(CC=C(C)C)c4)c(=O)oc3c2C)OC1(C)C [Novobiocin Sodium]
scaled lipid accumulation score [4]: inactive: 0.014
scaled lipid accumulation score [1]: inactive: ≤ 0

CO[C@@H]1[C@@H](OC(N)=O)[C@@H](O)[C@H](Oc2ccc3c(O)c(NC(=O)c4ccc(O)c(CC=C(C)C)c4)c(=O)oc3c2C)OC1(C)C [Novobiocin sodium]
scaled lipid accumulation score [1]: inactive: ≤ 0

CO[C@@H]1[C@@H](OC(N)=O)[C@@H](O)[C@H](Oc2ccc3c(O)c(NC(=O)c4ccc(O)c(CC=C(C)C)c4)c(=O)oc3c2C)OC1(C)C [Novobiocin sodium salt]
scaled lipid accumulation score: inactive: ≤ 0

O=Nc1c(-c2c(O)[nH]c3cc(Br)ccc23)[nH]c2ccccc12
scaled lipid accumulation score [5]: inactive: ≤ 0
scaled lipid accumulation score [6]: inactive: 0.085
scaled lipid accumulation score [7]: inactive: 0.012
scaled lipid accumulation score [4]: inactive: ≤ -0.009
scaled lipid accumulation score [1]: inactive: 0.557 and inactive: ≤ 0

O=Nc1c(-c2c(O)[nH]c3cc(Br)ccc23)[nH]c2ccccc12 [GSK-3 Inhibitor IX]
scaled lipid accumulation score [4]: inactive: 0.032

CCCCC(CC)CN1CCC(n2cc(CNC)nn2)CC1 (configuration not stated)
scaled lipid accumulation score [1]: active: 0.988

COc1ccc(S(=O)(=O)N2c3ccc(Cl)cc3[C@](O)(c3ccccc3Cl)[C@@H]2C(=O)N2CCC[C@H]2C(N)=O)cc1OC
scaled lipid accumulation score [1]: inactive: 0.02

COc1cc(OC)c(C=C2C(=O)Nc3ccccc32)c(OC)c1
scaled lipid accumulation score [4]: inactive: ≤ 0
scaled lipid accumulation score [1]: inactive: ≤ 0

CCN(CC)CC1CCN(c2ncc3ncnc(Nc4ccc(F)c(Cl)c4)c3n2)CC1.Cl.Cl [BIBU 1361 dihydrochloride]
scaled lipid accumulation score [1]: active: 1.06

CC(=O)OCOC(=O)CN(CC(=O)OCOC(C)=O)c1ccccc1OCCOc1ccccc1N(CC(=O)OCOC(C)=O)CC(=O)OCOC(C)=O
scaled lipid accumulation score [4]: inactive: ≤ -0.009
scaled lipid accumulation score [1]: inactive: 0.697

CN1CCCCC1CCN1c2ccccc2Sc2ccc([S+](C)[O-])cc21 (configuration not stated) [Mesoridazine besylate]
scaled lipid accumulation score: inactive: 0.537
scaled lipid accumulation score (library stock concentration: 5.2 mM): inactive: 0.506

CN1CCCCC1CCN1c2ccccc2Sc2ccc([S+](C)[O-])cc21 (configuration not stated) [Mesoridazine]
scaled lipid accumulation score [1]: inactive: 0.22

CC(C)C[C@H](NC(=O)[C@H](CCc1ccccc1)NC(=O)CN1CCOCC1)C(=O)N[C@@H](Cc1ccccc1)C(=O)N[C@@H](CC(C)C)C(=O)[C@@]1(C)CO1 [Carfilzomib (PR-171)]
scaled lipid accumulation score [4]: inactive: 0.051
scaled lipid accumulation score [1]: inactive: 0.526

COc1ccc(C2(CNC(=O)c3ccc(NC(=O)c4ccco4)cc3)CCOCC2)cc1
scaled lipid accumulation score [5]: inactive: ≤ 0
scaled lipid accumulation score [6]: inactive: ≤ 0
scaled lipid accumulation score [7]: inactive: ≤ 0
scaled lipid accumulation score [1]: inactive: ≤ 0
